Measured values published in PubChem BioAssay AID504339 (National Center for Advancing Translational Sciences (NCATS), 2011).
Among all 390,000 compounds or so, about 17,000 (4.4%) were called active. Inconclusive means that the source gave no clear call. Such entries were picked first, then a sample of the others. Calls follow the shape of the dose curve; as a rule, active = well fitted inhibition curve with a large enough effect; inconclusive = small, poorly fitted or top-dose-only effect; inactive = no such curve, though single readings can be large or run the other way. A potency beside an inconclusive call is a rough fit, not a confirmed value.

These molecules were tested against Lysine-specific demethylase 4A (Homo sapiens) (UniProt O75164) (assay: qHTS Assay for Inhibitors of JMJD2A-Tudor Domain). Settings: AlphaScreen JMJD2A-Tudor / H3K4me3 peptide binding; series mostly up to 114 µM.
Chain of UniProt O75164 (O75164 whole entry, looked up, the tested form may be a part): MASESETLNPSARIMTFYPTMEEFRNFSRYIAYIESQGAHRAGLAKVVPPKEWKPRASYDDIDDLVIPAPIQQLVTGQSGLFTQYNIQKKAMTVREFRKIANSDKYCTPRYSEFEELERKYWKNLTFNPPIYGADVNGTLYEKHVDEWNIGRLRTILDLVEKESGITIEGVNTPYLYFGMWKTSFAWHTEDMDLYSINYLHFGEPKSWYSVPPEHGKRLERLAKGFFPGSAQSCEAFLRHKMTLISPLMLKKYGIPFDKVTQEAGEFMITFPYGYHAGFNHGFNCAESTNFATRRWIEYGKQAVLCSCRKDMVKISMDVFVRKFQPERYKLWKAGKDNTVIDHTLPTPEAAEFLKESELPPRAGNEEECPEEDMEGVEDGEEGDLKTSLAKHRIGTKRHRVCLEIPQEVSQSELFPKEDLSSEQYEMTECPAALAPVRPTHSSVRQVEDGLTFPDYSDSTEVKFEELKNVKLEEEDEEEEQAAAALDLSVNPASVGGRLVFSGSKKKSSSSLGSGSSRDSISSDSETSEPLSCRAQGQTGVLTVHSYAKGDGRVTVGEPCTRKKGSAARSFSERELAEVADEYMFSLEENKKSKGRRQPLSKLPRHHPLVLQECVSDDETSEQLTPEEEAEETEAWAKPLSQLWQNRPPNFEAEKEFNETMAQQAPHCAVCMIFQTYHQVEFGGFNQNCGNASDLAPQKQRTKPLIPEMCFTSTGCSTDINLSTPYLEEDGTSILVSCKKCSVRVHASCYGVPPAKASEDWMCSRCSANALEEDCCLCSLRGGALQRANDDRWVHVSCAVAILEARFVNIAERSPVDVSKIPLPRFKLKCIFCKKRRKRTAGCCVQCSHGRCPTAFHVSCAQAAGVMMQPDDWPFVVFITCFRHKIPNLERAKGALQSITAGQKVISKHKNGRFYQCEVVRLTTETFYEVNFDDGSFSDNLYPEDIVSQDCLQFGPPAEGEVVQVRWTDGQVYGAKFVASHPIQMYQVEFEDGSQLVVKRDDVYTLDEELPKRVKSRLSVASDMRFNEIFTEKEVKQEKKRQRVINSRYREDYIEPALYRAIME
Also: nearly all actives have a fitted effect of over 50% in size.
Potency is read from the fitted curve at half-maximal effect; tags tell the direction and shape of the fitted curve.

Potency, inactive:
COC(=O)c1ccc(C(NC(=O)OCc2ccccc2)/C(C)=C/[C@@H](C)C(=O)NCc2ccc(-c3ccccc3)cc2)cc1 (some centres undefined), CCN(CC)CCNC(=S)Nc1ccc2nc(N3CCCC3)cc(C)c2c1, COc1ccc(C2C(C(=O)c3ccco3)=C(O)C(=O)N2CC2CCCO2)cc1OC (centres undefined), COc1ccc(-c2noc(CSc3nnc(Cc4ccccc4)n3-c3ccccc3)n2)cc1OC, COc1ccc(NC(=O)Cn2c(=O)cc(C)c3c(C)nn(-c4cccc(Cl)c4C)c32)cc1OC, c1ccc(CCC2CCCCN2Cc2nc(-c3ccc4c(c3)OCO4)no2)nc1 (centres undefined)

Potency, inconclusive:
c1ccc2oc(NC3=NCN(CC4CCCO4)CN3)nc2c1 (centres undefined) 79.4 µM [inhibitor, partial curve], COc1ccc(-c2nn(-c3ccccc3)cc2/C=C/C(=O)NCCCn2ccnc2)cc1OC 44.7 µM [inhibitor, partial curve], O=C(C[n+]1cccc(O)c1)NCc1ccc(Cl)cc1 25.1 µM [inhibitor, partial curve], COc1ccc(NC(=O)N(C2CCCCC2)C(C)c2ccco2)c(OC)c1 (centres undefined) 39.8 µM [inhibitor, partial curve], COCCNc1oc(-c2ccc(COc3ccc(OC)cc3)o2)nc1C#N 56.2 µM [inhibitor, partial curve], Cc1ccccc1-n1c(C)cc(/C=C2\NC(=O)NC2=O)c1C 89.1 µM [inhibitor, partial curve, poor fit], COC(=O)C1CCN(c2ccc([N+](=O)[O-])cc2[N+](=O)[O-])CC1 79.4 µM [inhibitor, partial curve], O=S(=O)(CCSc1nc2ccccc2s1)c1nc2ccccc2s1 39.8 µM [inhibitor, single point], Cc1cccc(N2CCC(N=CN(C)C)=N2)c1 56.2 µM [inhibitor, partial curve, poor fit], O=C(NN1C(=O)/C(=C/c2ccc(O)cc2)SC1=S)c1cccc(O)c1 50.1 µM [inhibitor, partial curve], N#Cc1c(N)[nH]c(=S)c(C#N)c1-c1ccccc1 50.1 µM [inhibitor, partial curve, poor fit]

Potency, active:
COc1cc(/C=C2/SC(=S)N(Cc3ccccc3)C2=O)cc(OC)c1O 3.55 µM, CCN(CC)C(=O)C1CCCN(Cc2ccc(OC)c(C)c2)C1 (centres undefined) 0.891 µM
